From PubChem BioAssay (NCATS)
Several values for one entry are separate records, joined by “and”; a condition that tells them apart may be missing. Identical values can stand only once. The inconclusive results got no clear call from the source; some entries with a clear call stand among them for comparison. For some of these results: Potencies beside an inconclusive call are fits to weak or partial responses and may not hold up. For some of these results: “Side channel” marks fits to a control or component signal instead of the main read-out. Activity calls are given as the source filed them. Unless noted, calls follow the shape of the dose curve; as a rule, active = well fitted curve in the direction sought with a large enough effect; inconclusive = small, poorly fitted or top-dose-only effect, or another doubt; inactive = no such curve, though single readings can be large; an effect the other way counts as inactive or inconclusive.

How the values were obtained:
[1] = target: Glucocorticoid receptor (Homo sapiens) (UniProt P04150); test: qHTS assay for small molecule antagonists of glucocorticoid receptor signaling (AID 588533; active = well fitted inhibition curve with a large enough effect in the signal ratio, with a control signal flat, not every such curve was filed as active; inconclusive = small, poorly fitted or top-dose-only effect, or effect the other way, or a change in a side signal; the % refers to the signal ratio;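 also: cells stimulated with 2 nM dexamethasone as agonist; % is scaled to controls: 0 for no effect and ±100 for the full control effect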); settings: HeLa MMTV-bla, GRE beta-lactamase ratio, antagonist mode, 18 h; activity change, negative = inhibition: at 76.8 µM (top of the series) unless noted
[2] = target: Thyroid hormone receptor beta (Homo sapiens) (UniProt P10828); test: qHTS assay for small molecule antagonists of thyroid hormone receptor beta signaling (AID 588547; active = well fitted inhibition curve with a large enough effect in the signal ratio, with a control signal flat, not every such curve was filed as active; inconclusive = small, poorly fitted or top-dose-only effect, or effect the other way, or a change in a side signal; the % refers to the signal ratio; also: potency is read from the fitted curve at half-maximal effect;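 as to activity change % (negative = inhibition): cells stimulated with 0.4 nM T3 agonist during compound exposure; % is scaled to controls: 0 for no effect and ±100 for the full control effect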); settings: TR-UAS-bla HEK293, beta-lactamase ratio, antagonist mode, 18 h
Sequence of UniProt P10828 (P10828 whole entry, looked up): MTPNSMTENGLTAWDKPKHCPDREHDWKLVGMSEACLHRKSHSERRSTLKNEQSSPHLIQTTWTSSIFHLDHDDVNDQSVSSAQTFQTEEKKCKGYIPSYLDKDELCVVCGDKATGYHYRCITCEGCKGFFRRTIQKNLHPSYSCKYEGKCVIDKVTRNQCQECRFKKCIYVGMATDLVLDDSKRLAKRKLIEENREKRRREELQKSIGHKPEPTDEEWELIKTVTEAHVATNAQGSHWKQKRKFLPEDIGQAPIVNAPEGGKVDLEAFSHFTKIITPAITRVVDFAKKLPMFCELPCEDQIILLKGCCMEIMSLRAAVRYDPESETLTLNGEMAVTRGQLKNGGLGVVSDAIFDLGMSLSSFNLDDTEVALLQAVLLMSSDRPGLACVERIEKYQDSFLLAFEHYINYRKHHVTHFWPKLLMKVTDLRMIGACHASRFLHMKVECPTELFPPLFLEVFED
Outline: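 Inhibition of T3-driven (0.4nM final) beta-lactamase reporter activity was measured over 0.59 nM to 92 uM compound after 18 h at 37 C. The cells were GripTite HEK293 TR-UAS-bla in charcoal/dextran-stripped serum, with CCF4 ratio read-out and IC50 from Hill fits.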

[3] = target: Voltage-gated inwardly rectifying potassium channel KCNH2 (Homo sapiens) (UniProt Q12809); test: qHTS Assay for Small Molecule Inhibitors of the Human hERG Channel Activity (AID 588834); settings: U2OS BacMam hERG, FluxOR thallium flux fluorescence; at 92.2 µM (top of the series);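 also: top concentration of the series differs between compounds; % is scaled to controls: 0 for no effect and ±100 for the full control effect; lower thallium flux fluorescence means stronger hERG block; nearly all actives have a fitted effect of over 50% in size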
Sequence of UniProt Q12809 (Q12809 whole entry, looked up): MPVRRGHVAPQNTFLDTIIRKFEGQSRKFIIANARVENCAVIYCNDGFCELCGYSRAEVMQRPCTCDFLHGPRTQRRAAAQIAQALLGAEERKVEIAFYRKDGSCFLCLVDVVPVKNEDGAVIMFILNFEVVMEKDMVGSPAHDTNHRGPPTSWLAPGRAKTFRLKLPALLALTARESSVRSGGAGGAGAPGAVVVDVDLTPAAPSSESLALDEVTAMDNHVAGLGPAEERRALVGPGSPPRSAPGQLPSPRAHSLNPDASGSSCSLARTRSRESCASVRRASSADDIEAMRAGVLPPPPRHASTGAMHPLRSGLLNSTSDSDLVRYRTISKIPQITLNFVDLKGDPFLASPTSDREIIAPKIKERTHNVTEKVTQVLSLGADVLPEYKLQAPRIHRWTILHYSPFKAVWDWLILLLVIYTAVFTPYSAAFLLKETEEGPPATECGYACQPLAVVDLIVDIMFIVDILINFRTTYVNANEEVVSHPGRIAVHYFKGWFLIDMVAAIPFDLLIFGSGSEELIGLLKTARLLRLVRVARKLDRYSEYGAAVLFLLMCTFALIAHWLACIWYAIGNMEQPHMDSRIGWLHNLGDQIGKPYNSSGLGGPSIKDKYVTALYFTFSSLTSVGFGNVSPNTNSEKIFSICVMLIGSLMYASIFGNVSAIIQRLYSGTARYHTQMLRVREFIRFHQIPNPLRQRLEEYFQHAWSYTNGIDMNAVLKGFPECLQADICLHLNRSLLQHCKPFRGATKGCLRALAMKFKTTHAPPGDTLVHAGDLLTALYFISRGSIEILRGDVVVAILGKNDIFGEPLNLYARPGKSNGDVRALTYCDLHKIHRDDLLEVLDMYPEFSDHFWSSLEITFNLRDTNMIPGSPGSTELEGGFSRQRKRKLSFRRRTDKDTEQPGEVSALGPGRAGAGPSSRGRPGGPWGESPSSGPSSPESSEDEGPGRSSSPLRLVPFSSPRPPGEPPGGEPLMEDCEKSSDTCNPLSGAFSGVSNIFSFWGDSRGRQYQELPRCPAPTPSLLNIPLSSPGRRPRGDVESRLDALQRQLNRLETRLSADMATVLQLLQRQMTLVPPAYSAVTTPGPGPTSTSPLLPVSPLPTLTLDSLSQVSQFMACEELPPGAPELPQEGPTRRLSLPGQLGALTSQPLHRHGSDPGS
Outline: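 Kinetic FDSS fluorescence; U2OS + hERG BacMam (~100 virus particles/cell); FluxOR Tl+ flux; ~10 min cpd; AC50 (Hill).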

[4] = qHTS assay for small molecule agonists of the antioxidant response element (ARE) signaling pathway (AID 651741; active = well fitted activation curve with a large enough effect in the signal ratio; inconclusive = small, poorly fitted or top-dose-only effect, or effect the other way, or a change in a side signal; the % refers to the signal ratio; also: % of control where 0% means no effect); settings: HepG2 ARE-bla reporter, beta-lactamase FRET ratio, 16 h
Outline: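 Quantitative HTS in HepG2 cells stably expressing an ARE-beta-lactamase reporter; 16 h compound exposure at 37 C, followed by 2 h room-temperature incubation with LiveBLAzer B/G FRET substrate and fluorescence measurement.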

[5] = qHTS assay for small molecule disruptors of the mitochondrial membrane potential - 1 hr assay (AID 651754; calls by dose curve; also: potency is read from the fitted curve at half-maximal effect; nearly all actives have a fitted effect of over 35% in size); settings: ratio change, negative = depolarisation: at 92.2 µM (top of the series)
Outline: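 HepG2 cells, attached overnight, were exposed to compound for 1 hr at 37C, then stained 30 min with a potentiometric dye. Ratio of red aggregate (590nm) to green monomer (535nm) fluorescence reports membrane potential; collapse shifts signal toward green.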

[6] = qHTS assay to identify small molecules that stimulate interleukin-8 (IL-8) secretion (AID 651758; active = well fitted activation curve with a large enough effect in the signal ratio; inconclusive = small, poorly fitted or top-dose-only effect, or effect the other way, or a change in a side signal; the % refers to the signal ratio; also: 0% is about no effect); settings: HTRF ratio (665/615)
Outline: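 Secreted IL-8 measured by TR-FRET sandwich (cryptate and XL665 antibodies) from THP-1 cells exposed to compound overnight (16 hrs, 37 C).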

[7] = qHTS assay for small molecule agonists of the antioxidant response element (ARE) signaling pathway measured by Nrf2-dependant transcriptional activity - cell viability counter screen (AID 720653; active = well fitted curve in the direction sought with a large enough effect in the repeat runs; inconclusive = weak or mixed curves; inactive = no such curve, though single readings can be large; an effect the other way counts as inactive or inconclusive; also: % is scaled to controls: 0 for no effect and ±100 for the full control effect); settings: ARE-bla HepG2 viability, CellTiter-Glo ATP luminescence, 16 h; max response: stronger effect = lower value
Outline: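 Cytotoxicity counter screen: intracellular ATP quantified by CellTiter-Glo luminescence in the same ARE-bla HepG2 plates, after 16 h compound exposure and a 2 h beta-lactamase substrate step.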

[8] = qHTS assay for cell viability of the p53RE-bla HCT-116 cell line (AID 743292); also: % is scaled to controls: 0 for no effect and ±100 for the full control effect; nearly all actives have a fitted effect of over 55% in size
Outline: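 Compound-exposed HCT-116 (p53RE-bla) cells, 4,000 per well, were kept 16 h at 37 C following a 5 h preincubation. Cell number was estimated from total ATP by CellTiter-Glo luminescence read after 30 min at room temperature.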

[9] = target: Peroxisome proliferator-activated receptor delta (Homo sapiens) (UniProt Q03181); test: qHTS assay for small molecule antagonists of peroxisome proliferator-activated receptor delta signaling (AID 588535; active = well fitted inhibition curve with a large enough effect in the signal ratio, with a control signal flat, not every such curve was filed as active; inconclusive = small, poorly fitted or top-dose-only effect, or effect the other way, or a change in a side signal; inactive = no such curve, though single readings can be large or run the other way; the % refers to the signal ratio); settings: HEK293T PPARd-UAS-bla, beta-lactamase FRET ratio, 18 h; activity change, negative = inhibition: at 76.7 µM (top of the series) unless noted
Sequence of UniProt Q03181 (Q03181 whole entry, looked up): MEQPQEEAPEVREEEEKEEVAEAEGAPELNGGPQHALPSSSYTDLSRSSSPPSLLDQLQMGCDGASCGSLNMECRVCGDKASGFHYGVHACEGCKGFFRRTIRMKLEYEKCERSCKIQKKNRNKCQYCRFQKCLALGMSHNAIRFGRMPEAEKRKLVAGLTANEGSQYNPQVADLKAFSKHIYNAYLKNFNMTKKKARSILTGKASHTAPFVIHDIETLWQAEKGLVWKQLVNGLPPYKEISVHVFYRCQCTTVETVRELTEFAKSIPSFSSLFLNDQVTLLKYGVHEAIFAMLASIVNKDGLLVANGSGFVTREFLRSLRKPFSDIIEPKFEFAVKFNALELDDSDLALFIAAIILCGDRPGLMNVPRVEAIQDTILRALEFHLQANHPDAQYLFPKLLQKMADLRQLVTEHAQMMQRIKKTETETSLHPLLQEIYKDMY
Outline: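 HEK293T PPAR-delta-UAS-bla cells, 4000/well, 2% charcoal/dextran FBS; 5 h 37 C; cpd titration; 18 h 37 C; CCF4 2 h RT; FI 460/530 nm; Hill fit → IC50, efficacy.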

[10] = MultiTox-Fluor Cytotoxicity Assay - LYMP1-003 - Dead Cells (AID 961);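 also: 0% = DMSO and 100% = tetraoctylammonium bromide; nearly all actives have a fitted effect of over 70% in size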
Outline: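 LYMP1-003 human lymphoblastoid cells (2500/well) exposed to compound 16 h at 37 C in complete medium; dead-cell protease read with bis-AAF-R110 fluorescence (Ex/Em 485/520) after 60 min at room temperature. Normalized to DMSO and 15 uM tetraoctylammonium bromide; AC50 from Hill fit.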

[11] = target: Glucocorticoid receptor (Homo sapiens) (UniProt P04150); test: qHTS assay for small molecule agonists of glucocorticoid receptor signaling (AID 588532; active = well fitted curve in the direction sought with a large enough effect in the signal ratio, with a control signal flat; inconclusive = small, poorly fitted or top-dose-only effect, or a change in a side signal; inactive = no such curve, though single readings can be large or run the other way; the % refers to the signal ratio;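 also: 100% = dexamethasone at 0.1 µM and 0% = DMSO only wells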); settings: HeLa MMTV-bla, beta-lactamase ratio, agonist, 18 h; activation: stronger effect = higher value, percent of dexamethasone control, DMSO zero
Outline: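 Quantitative HTS using CellSensor MMTV-bla HeLa cells in charcoal/dextran-treated serum; compounds tested up to 92 uM. After 18 h at 37 C, CCF4 dye reported reporter induction.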

[12] = target: Retinoic acid receptor RXR-alpha (Homo sapiens) (UniProt P19793); test: qHTS assay for small molecule antagonists of retinoid X receptor alpha signaling (AID 588546; active = well fitted inhibition curve with a large enough effect in the signal ratio, with a control signal flat, not every such curve was filed as active; inconclusive = small, poorly fitted or top-dose-only effect, or effect the other way, or a change in a side signal; inactive = no such curve, though single readings can be large or run the other way; the % refers to the signal ratio;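 also: cells stimulated with 9-cis-retinoic acid as agonist; % is scaled to controls: 0 for no effect and ±100 for the full control effect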); settings: HEK293T RXRa-UAS-bla, beta-lactamase ratio, antagonist mode
Sequence of UniProt P19793 (P19793 whole entry, looked up): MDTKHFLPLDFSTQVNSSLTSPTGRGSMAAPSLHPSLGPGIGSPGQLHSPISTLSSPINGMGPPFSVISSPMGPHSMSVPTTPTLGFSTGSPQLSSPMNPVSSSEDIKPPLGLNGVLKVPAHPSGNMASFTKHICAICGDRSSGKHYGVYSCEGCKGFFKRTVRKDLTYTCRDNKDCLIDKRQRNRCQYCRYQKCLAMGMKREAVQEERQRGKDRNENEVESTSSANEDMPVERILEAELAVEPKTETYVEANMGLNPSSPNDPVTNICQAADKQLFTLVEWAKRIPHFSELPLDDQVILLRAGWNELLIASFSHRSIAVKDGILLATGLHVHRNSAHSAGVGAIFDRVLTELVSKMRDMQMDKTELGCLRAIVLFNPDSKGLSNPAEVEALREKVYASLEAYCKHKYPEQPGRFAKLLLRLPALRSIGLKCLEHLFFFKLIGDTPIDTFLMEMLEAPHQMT
Outline: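 Beta-lactamase reporter inhibition, read as CCF4 fluorescence ratio (ex 405, em 460/530 nm) after 2 h at RT. HEK293T UAS-bla cells, 2500/well, were stimulated with 9-cis-RA at 500 or 100 nM final alongside test compound for 18 h at 37 C.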

[13] = target: Peroxisome proliferator-activated receptor gamma (Homo sapiens) (UniProt P37231); test: qHTS assay for small molecule agonists of peroxisome proliferator-activated receptor gamma signaling (AID 588536; active = well fitted curve in the direction sought with a large enough effect in the signal ratio, with a control signal flat, not every such curve was filed as active; inconclusive = small, poorly fitted or top-dose-only effect, or effect the other way, or a change in a side signal; inactive = no such curve, though single readings can be large or run the other way; the % refers to the signal ratio;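 also: 0% = DMSO basal wells and 100% = rosiglitazone at 2 µM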); settings: HEK293 PPARg-UAS-bla, beta-lactamase ratio, 16 h; activation: at 76.7 µM (top of the series), percent of rosiglitazone response, DMSO as zero unless noted
Outline: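 GeneBLAzer PPAR-gamma-UAS-bla HEK293 cells in 1% charcoal/dextran-treated FBS medium were treated 16 h at 37 C with compounds. Beta-lactamase activity was read by CCF4 ratio (460/530 nm). Response was normalized to 2 uM rosiglitazone (100%) and DMSO, then Hill-fitted for EC50 and efficacy.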

[14] = target: Peroxisome proliferator-activated receptor gamma (Homo sapiens) (UniProt P37231); test: qHTS assay for small molecule antagonists of peroxisome proliferator-activated receptor gamma signaling (AID 588537; active = well fitted inhibition curve with a large enough effect in the signal ratio, with a control signal flat, not every such curve was filed as active; inconclusive = small, poorly fitted or top-dose-only effect, or effect the other way, or a change in a side signal; the % refers to the signal ratio;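 also: reporter cells co-stimulated with 50 nM rosiglitazone agonist during compound treatment; potency is read from the fitted curve at half-maximal effect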); settings: HEK293 PPARg-UAS-bla, beta-lactamase ratio, antagonist mode; activity, negative = inhibition: at 76.8 µM (top of the series)
Outline: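 Antagonist mode, beta-lactamase reporter in HEK293; charcoal/dextran FBS 1%; 3000 cells/well, 37 C 6-6.5 h; cpd titration + rosiglitazone 50 nM final, 16 h 37 C; CCF4, 2 h RT; 460/530 nm; Hill fit → IC50, efficacy.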

[15] = qHTS assay for small molecule agonists of the antioxidant response element (ARE) signaling pathway measured by Nrf2-dependant transcriptional activity (AID 720636; active = well fitted curve in the direction sought with a large enough effect in the repeat runs; inconclusive = weak or mixed curves; inactive = no such curve, though single readings can be large; an effect the other way counts as inactive or inconclusive; also: potency is read from the fitted curve at half-maximal effect)
Outline: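 Attachment 6 hr at 37 C, then compound versus DMSO vehicle for 16 hr in ARE-luc HepG2 cells (1% dialyzed FBS); luminescence recorded 30 min after ONE-Glo addition at room temperature.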

[16] = target: Retinoic acid receptor RXR-alpha (Homo sapiens) (UniProt P19793); test: qHTS assay for small molecule agonists of retinoid X receptor alpha signaling (AID 588544; calls by dose curve; also: potency is read from the fitted curve at half-maximal effect;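 as to activation: 0% = DMSO basal wells and 100% = reference agonist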); settings: HEK293T RXRa-UAS-bla, beta-lactamase reporter, 18 h; activation: at 76.7 µM (top of the series) unless noted
[17] = target: Cytochrome P450 3A4 (Homo sapiens) (UniProt P08684); test: qHTS Assay for Inhibitors and Substrates of Cytochrome P450 3A4 (AID 884); also: % is scaled to controls: 0 for no effect and ±100 for the full control effect; nearly all actives have a fitted effect of over 50% in size
Sequence of UniProt P08684 (P08684 whole entry, looked up): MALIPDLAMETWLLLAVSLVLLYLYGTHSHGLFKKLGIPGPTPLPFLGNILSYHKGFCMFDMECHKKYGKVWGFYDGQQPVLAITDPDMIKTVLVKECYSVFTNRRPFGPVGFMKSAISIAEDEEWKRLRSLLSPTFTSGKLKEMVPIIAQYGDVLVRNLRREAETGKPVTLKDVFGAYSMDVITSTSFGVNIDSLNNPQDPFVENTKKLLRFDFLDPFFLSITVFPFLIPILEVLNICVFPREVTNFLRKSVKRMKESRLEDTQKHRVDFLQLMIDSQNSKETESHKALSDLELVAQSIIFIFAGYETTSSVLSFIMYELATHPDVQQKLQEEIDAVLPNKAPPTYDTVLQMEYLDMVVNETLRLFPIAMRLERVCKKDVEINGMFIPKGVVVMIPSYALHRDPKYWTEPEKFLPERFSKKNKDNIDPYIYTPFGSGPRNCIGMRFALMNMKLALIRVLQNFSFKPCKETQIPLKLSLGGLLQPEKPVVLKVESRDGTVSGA
Outline: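 20 nM human CYP3A4 with 25 uM Luciferin-PPXE (at KM) in 200 mM KPO4, preincubated 10 min with compound; NADPH regeneration started a 60 min RT reaction. Luciferin detected by luminescence, normalized to 57 uM ketoconazole as full inhibition.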

[18] = target: Cytochrome P450 3A4 (Homo sapiens) (UniProt P08684); test: qHTS Assay for Activators of Cytochrome P450 3A4 (AID 885); also: potency is read from the fitted curve at half-maximal effect; nearly all actives have a fitted effect of over 65% in size
Outline: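 Human CYP3A4 (20 nM) with Luciferin-PPXE at 25 uM (its KM) in 200 mM KPO4; 10 min compound preincubation, then NADPH regeneration and 60 min reaction at RT. Luciferin read by luminescence; normalized to 57 uM ketoconazole full inhibition.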

[19] = MultiTox-Fluor Cytotoxicity Assay - LYMP1-002 - Dead Cells (AID 960); settings: LYMP1-002 lymphoblastoid cells, dead-cell protease fluorescence; cytotoxicity (dead cells): at 46.1 µM (top of the series);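 also: 0% = DMSO and 100% = tetraoctylammonium bromide; nearly all actives have a fitted effect of over 60% in size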
Outline: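 Human lymphoblastoid LYMP1-002 cells, 2500/well, treated 16 h at 37 C; dead-cell protease cleavage of bis-AAF-R110 read by fluorescence (485/520); normalized to DMSO and 15 uM tetraoctylammonium bromide; AC50 from Hill fit.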

[20] = Cell Viability - LYMP2-023 (AID 975);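 also: cellular ATP measured by luciferase luminescence as viability proxy; cells exposed to compound for 24 hours at 37 °C; plate controls were DMSO only for no effect and 92 µM tetraoctylammonium bromide control for full effect; nearly all actives have a fitted effect of over 55% in size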
Outline: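 LYMP2-023 human lymphoblastoid cells, 2500/well, preincubated 5 hr at 37 C, then compound-treated 24 hr at 37 C in complete medium. CellTiter-Glo luminescence (ATP) after 30 min at room temperature; AC50 from Hill-equation fits; tetraoctylammonium bromide positive control.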

[21] = Cell Viability - LYMP2-008 (AID 980);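 also: cells exposed to compound for 24 h at 37 °C; % is scaled to controls: 0 for no effect and ±100 for the full control effect; nearly all actives have a fitted effect of over 60% in size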
Outline: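 LYMP2-008 lymphoblastoid cells (2500/well) plated 5 h, then treated 24 h at 37 C in complete medium. Viability read as intracellular ATP by CellTiter-Glo luminescence after 30 min at room temperature; AC50 from Hill fits.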

[22] = target: Tumor necrosis factor (Homo sapiens) (UniProt P01375); test: qHTS assay to identify small molecules that stimulate Tumor Necrosis Factor-alpha (TNF-alpha) secretion (AID 651757; active = well fitted curve in the direction sought with a large enough effect in the signal ratio; inconclusive = small, poorly fitted or top-dose-only effect, or a change in a side signal; inactive = no such curve, though single readings can be large or run the other way; the % refers to the signal ratio; also: 0% is about no effect); settings: Human cells, HTRF 665/615 ratio; activation (TNF-alpha secretion): at 92.2 µM (top of the series)
Sequence of UniProt P01375 (P01375 whole entry, looked up): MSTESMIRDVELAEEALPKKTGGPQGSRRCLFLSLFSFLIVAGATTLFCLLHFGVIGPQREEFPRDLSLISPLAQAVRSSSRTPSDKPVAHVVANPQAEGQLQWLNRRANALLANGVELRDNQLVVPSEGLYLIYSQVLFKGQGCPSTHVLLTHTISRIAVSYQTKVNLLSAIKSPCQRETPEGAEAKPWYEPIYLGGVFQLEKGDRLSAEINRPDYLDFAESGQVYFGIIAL
Outline: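 THP-1 cells (3000/well) exposed to compounds 17 hrs at 37 C. Secreted TNF-alpha detected by HTRF with cryptate- and XL665-labeled anti-TNF-alpha antibodies after 3 hr at room temperature.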

[23] = Cell Viability - LYMP2-009 (AID 968);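 also: cells exposed to compound for 24 h at 37 °C; 0% = DMSO alone and the full-kill end = tetraoctylammonium bromide at 92 µM; nearly all actives have a fitted effect of over 55% in size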
[24] = target: Vitamin D3 receptor (Homo sapiens) (UniProt P11473); test: qHTS assay for small molecule agonists of vitamin D receptor signaling (AID 588543; calls by dose curve;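 also: 0% = DMSO basal and 100% = reference agonist control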); settings: HEK293T VDR-UAS-bla, beta-lactamase ratio, 16 h; activation: at 76.8 µM (top of the series)
Outline: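 Agonist-mode beta-lactamase reporter: HEK293T VDR-UAS-bla cells in charcoal-stripped 2% FBS, compound series 16 h 37 C, CCF4 2 h RT. EC50 from Hill fit, scaled against DMSO and 50 nM calcitriol control.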

[25] = qHTS assay for small molecule activators of the p53 signaling pathway (AID 651743; active = well fitted activation curve with a large enough effect in the signal ratio, not every such curve was filed as active; inconclusive = small, poorly fitted or top-dose-only effect, or a change in a side signal; the % refers to the signal ratio; also: potency is read from the fitted curve at half-maximal effect); settings: HCT-116 p53RE-bla, beta-lactamase FRET ratio, 16 h; activation: stronger effect = higher value
Outline: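 Read-out is fluorescence intensity from the LiveBLAzer B/G FRET substrate, added for 2 hours at room temperature after HCT-116 p53RE-bla cells had been incubated with compounds for 16 hours at 37 C.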

[26] = qHTS assay for small molecule antagonists of the retinoid-related orphan receptor gamma (ROR-gamma) signaling pathway - cell viability counter screen (AID 720652; active = well fitted curve in the direction sought with a large enough effect in the repeat runs; inconclusive = weak or mixed curves; inactive = no such curve, though single readings can be large; an effect the other way counts as inactive or inconclusive;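 also: potency is read from the fitted curve at half-maximal effect; compound exposure lasted 16 hr before ATP read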)
Outline: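 CHO cells carrying TET-inducible ROR and RORE-luciferase reporter, plated 5 hr, then dosed with compound plus doxycycline. After 16 hr at 37 C, viability read as intracellular ATP by CellTiter-Glo luminescence.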

[27] = activation: at 96 µM (top of the series) unless noted
[28] = activation: at 92.2 µM (top of the series)
Tags tell the direction and shape of the fitted curve or compound fluorescence and quenching.

Oc1cc(Cl)ccc1Cl
inactive: activity change, negative = inhibition [3] 0.868% | activation ([4]; at 96 µM (top of the series)) 0.261% | Potency [6, 28] | max response [7] 14.5% and -2.04% | Potency [8]
inconclusive: activity change, negative = inhibition [1] -18.5% | Potency [2] 17.8 µM [side channel, falling, single point] | activation [4, 27] 8.84% | Potency [5] 42.2 µM [inhibitor, partial curve]

FC(F)C(F)(F)OCC(Cn1cncn1)c1ccc(Cl)cc1Cl (stereo unspecified)
inconclusive: activity change, negative = inhibition [9] 24.2% | activation [4, 27] 11.9%
inactive: Potency [1]

C=C(C)C(=O)OCC1CO1 (stereo unspecified)
inactive: Potency [10] | activation [11] -3.77% | max response [12] 4.24%
inconclusive: activation [4, 27] 7.29% | activation [6, 28] -7.39%

CCCOCC(=Nc1ccc(Cl)cc1C(F)(F)F)n1ccnc1
inactive: Potency [1] | max response [7] -4.06%
inconclusive: activation [13] 55.4% | Potency [14] 14.1 µM [inhibitor, full curve] | max response [12] -27.5% | activity change % (negative = inhibition) [2] -17%
active: Potency [15] 61.1 µM

CSC(=O)c1c(C(F)F)nc(C(F)(F)F)c(C(=O)SC)c1CC(C)C
inconclusive: activity change, negative = inhibition [1] -33.4% | Potency [16] 39.8 µM [activator, partial curve, poor fit] | activation [4, 27] 7.37%
inactive: max response [12] -15.4%

N#CCCCl
inconclusive: Potency [18] 0.0501 µM [activator, full curve, poor fit] | activation [6, 28] 3.55%
inactive: Potency [17] | Potency [19] | Potency [20] | Potency [21] | Potency [1] | Potency [16] | Potency [4, 27] | Potency [22] | activation ([6]; at 92.2 µM (top of the series)) -4.95%

N#CCBr
inactive: Potency [19] | Potency [23]
inconclusive: activity change, negative = inhibition [1] -26.5% | activation [24] -1.05% | Potency [25] 0.0063 µM [side channel, falling, full curve, poor fit] | activation [6, 28] 4.34% | Potency [26] 75 µM [cytotoxic, partial curve, poor fit]
